Measured values reported in paper PMC12040169 (PLOS Biology, 2025).
Some of the results follow.

Test system: T1, C. trachomatis L2/434/Bu expressing GFP (CTL2-GFP)
T1 construct: L2/434/Bu GFP intracellular growth in HeLa cells
Design: species or system HeLa; C. trachomatis total inclusion area by high-content imaging, normalised to DMSO
Conditions: total inclusion area; 28.5 h, 10 µM; inhibitor
How it was run: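 High-content imaging followed the bulk GFP/resorufin measurement: fixed, Hoechst-stained cells were scored for GFP inclusions and host nuclei per well. Total inclusion area and count served as growth proxies, nuclei number as the viability proxy. MIC calculation matched the bulk assay.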

Compound	% of control remaining
Cc1c(C(=O)Nc2cccc(S(=O)(=O)NCc3ccco3)c2)cnn1-c1ccccc1 [CBK297762]	91.4606
COc1ccc(CCNC(=O)Nc2ccccc2[N+](=O)[O-])cc1 [CBK266497]	119.311
Nc1nc(NCc2ccccc2)nc(-c2cc(Cl)ccc2O)n1 [CBK074526]	69.5297
O=C(CSc1ccccn1)Nc1cccc(Cl)c1Cl [CBK057679]	75.9679
Cc1ccc(N2C(=O)CSC2c2ccc(Cl)cc2Cl)cc1 (centres unmarked) [CBK025673]	82
CCn1c(=O)n(CC(=O)N(C)C)c2cccnc21 [CBK282299]	97.0274
COc1ccc(C(=O)N2CCC3(CCN(C(=O)c4ccc5[nH]c(=O)[nH]c5c4)C3)C2)cc1OC (centres unmarked) [CBK131793]	60.221
CCC(C)NC(=O)C1=CCN(S(C)(=O)=O)C1 (centres unmarked) [CBK282861]	77.539
Oc1ccc(Nc2cc(-c3ccc(Cl)cc3)ncn2)cc1 [CBK090751]	112.219
CCCS(=O)(=O)Nc1nccnc1N1CCN(c2cnccn2)CC1 [CBK048828]	83.2036
CS(=O)(=O)c1ccc(-c2nccnc2N2CCCCC2CO)cc1 (centres unmarked) [CBK037657]	104.896
Cc1ccc(C(=O)N2CN(C(=O)CNC3CC3)CC2(C)C)cc1 [CBK089574C]	4.374
CC(=O)Nc1ccc(S(=O)(=O)N2CCCC(CO)C2)cc1 (centres unmarked) [CBK262108]	92.8084
Cc1ccc(C(=O)O)c(NC(=O)c2ccccc2F)c1 [CBK126744]	70.999
CS(=O)(=O)N(CC(=O)O)c1cccc(C(F)(F)F)c1 [CBK286988]	91.8505
COc1ccc(-c2cc([C@H]3CN4CC[C@H]3C[C@@H]4CNC(C)=O)n(C)n2)cc1OC [CBK288757]	111.155
COc1ccnc(N2CCCN(CC(N)=O)CC2)n1 [CBK083992]	65.897
COc1ccc(Br)cc1S(=O)(=O)Nc1c(C(=O)O)sc2ncccc12 [CBK049978]	74.1817
COc1ccc(Br)cc1S(=O)(=O)Nc1ccsc1C(=O)Nc1ccc(F)cc1 [CBK004593]	82.4457
COc1ccccc1C(=O)NCCNC(=O)c1ccccn1 [CBK269174]	94.4036
CC(C)(C)C1=CC2=NC3(CCC3)C3C[C@@](C)(O)[C@@H](O)[C@@H]3N2O1 (some centres unmarked) [CBK303263]	69.4886

Compound	% of control remaining
O=C(O)CN1C(=O)[C@@H]2Cc3ccccc3CN2C1=O [CBK202728]	89.5951
CCc1n[nH]c(SCc2ccc(Br)cc2)n1 [CBK265221]	92.8276
O=C(O)c1cccc(NS(=O)(=O)c2cc3ccccc3o2)c1 [CBK200423]	97.1742
COc1ccc(-c2nnc(SCC(=O)NN)n2-c2ccccc2)cc1 [CBK263157]	110.235
O=C(O)CCC(=O)Nc1ccc(NC(=O)C2CCCCC2)c(Cl)c1 [CBK268867]	123.308
CCC(C)NC(=O)Cn1c(C2CCOCC2)cc2cccnc21 (centres unmarked) [CBK285390]	97.8235
Cn1cc(-c2nc(C(=O)NCc3ccnc(N4CCCC4)c3)cs2)cn1 [CBK305666]	19.1954
Cc1ccc(CSCCNS(=O)(=O)c2ccc3ccccc3c2)cc1 [CBK268048]	100.464
CCOC(=O)Cc1ccc(Nc2cc(-c3ccc(N(C)C)cc3)ncn2)cc1 [CBK090712]	3.714
O=C(/C=C(\c1ccccc1)n1cncn1)c1ccc(Cl)cc1 [CBK262089]	104.732
Nc1nc(OCc2cccs2)cnc1-c1ccsc1 [CBK145161]	97.9108
Cc1[nH]c2ccc(CNC(=O)NC3CCCc4cn[nH]c43)cc2c1C (centres unmarked) [CBK305488]	68.6528
Cc1ccc(SC(C)C(=O)NCCCN2CCOCC2)cc1 (centres unmarked) [CBK268624]	86.0635
CCOc1ccc(CNc2ccc(C3c4ccsc4CCN3C(C)=O)cc2)cc1 (centres unmarked) [CBK286451]	85.3342
Cc1cc(C)n(C(C)CC(=O)N2CCN(C)CC2c2ccccc2)n1 (centres unmarked) [CBK282014]	100.382
COc1ccc(C(=O)N[C@H]2CCN3C(=O)c4ccc(Cl)cc4NC(=O)[C@@H]3C2)cc1 [CBK289564]	128.355
COc1ccc2c(c1)cc(C(=O)NCCN1CCCCC1CO)n2C (centres unmarked) [CBK306621]	74.2568
NC(=O)c1c(NC(=O)c2ccc(S(=O)(=O)N3CCCC3)cc2)sc2c1CCCC2 [CBK262486]	92.756
CC1=CC2=NC3(CCC3)[C@@H]3C[C@@H](O)[C@@H](O)[C@@H]3N2O1 [CBK303257]	49.3897
O=C1CC[C@@H](NCc2ccccc2O)[C@H](c2cc(F)cc(F)c2)N1 [CBK283126]	102.272
